From patent publication US20160060354A1 (Sanofi, published 2016)

Molecular target: T1, TEM1 on SJSA-1 and A673 cells (UniProt Q9HCU0 18-757, limits assumed)
T1 sequence (looked up): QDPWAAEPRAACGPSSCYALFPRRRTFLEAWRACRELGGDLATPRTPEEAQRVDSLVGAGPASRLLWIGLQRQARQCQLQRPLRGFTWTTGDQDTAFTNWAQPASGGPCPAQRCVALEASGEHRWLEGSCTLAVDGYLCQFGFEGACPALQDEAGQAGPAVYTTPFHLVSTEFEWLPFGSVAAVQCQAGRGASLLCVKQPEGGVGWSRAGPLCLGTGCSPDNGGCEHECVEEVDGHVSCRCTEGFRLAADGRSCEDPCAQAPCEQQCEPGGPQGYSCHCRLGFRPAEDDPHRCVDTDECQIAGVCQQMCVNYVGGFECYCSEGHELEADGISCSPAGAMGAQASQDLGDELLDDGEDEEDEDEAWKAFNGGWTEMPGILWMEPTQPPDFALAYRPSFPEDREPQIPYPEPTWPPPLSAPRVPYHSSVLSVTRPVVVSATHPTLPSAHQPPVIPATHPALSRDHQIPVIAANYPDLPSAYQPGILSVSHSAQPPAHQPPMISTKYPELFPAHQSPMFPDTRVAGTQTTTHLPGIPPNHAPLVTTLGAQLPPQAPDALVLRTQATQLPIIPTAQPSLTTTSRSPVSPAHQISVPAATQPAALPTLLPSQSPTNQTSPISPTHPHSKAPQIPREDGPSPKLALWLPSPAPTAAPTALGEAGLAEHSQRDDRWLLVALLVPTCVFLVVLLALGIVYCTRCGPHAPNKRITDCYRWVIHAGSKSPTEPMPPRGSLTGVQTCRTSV
Assay: cell-based or functional assay

IC50, cell proliferation assay, A673-DMEM-RPMI cells: 2.2 µg/mL
IC50, cell proliferation assay, A673-RPMI cells: 3.2 µg/mL
IC50, cell proliferation assay, SJSA-1 cells: 3 µg/mL
B1: antiTEM1 A114N-AO-MC-VC-PABC-MMAE (antibody, human IgG1, kappa)
heavy: QVQLQESAPGLVKPSETLSLTCTVSGGSIRSYYWSWIRQPPGKGLEYIGYIYYTGSAIYNPSLQSRVTISVDTSKNQFSLKLNSVTAADTAVYYCAREGVRGASGYYYYGMDVWGQGTTVTVSS[here human IgG1 constant region without letters]
light: not shown
modifications: aminooxy-MC-VC-PABC-MMAE on galactose aldehyde of the glycans (engineered N114, Kabat), DAR 1.72
